Columns and labels:
[1] = test system: human mammary cancer tissue; assay: Reactivity of GAH antibody with human mammary cancer tissue sections (biotinylated antibody, PerCP-streptavidin fluorescence microscopy); assay type: binding; conditions: of 11 cases of mammary cancer tissue; 100 μg/ml biotinylated GAH antibody, 37° C., 2 hours; judged from intensity and distribution of red fluorescence
Procedure: (§1) A GAH antibody as described in Japanese Patent Application Laid-Open No. Hei 5-304987 (Examples 1, 2 and 3) was labeled with a biotinylating reagent (product of Amersham Bioscience). After a paraffin section of human mammary cancer tissue was de-paraffinized and then blocked by dipping it in a 5%-BSA/PBS solution at room temperature for 1 hour, the resulting section was caused to react with 100 μg/ml of a biotinylated GAH antibody solution at 37° C. for 2 hours. The section was washed with PBS and caused to react with 4 μg/ml of a PerCP (peridinin chlorophyll protein) labeled streptavidin solution (product of Becton/Dickinson) for 30 minutes under ice cooling while blocking light. The reactivity of the GAH antibody with the mammary cancer tissue section was detected as red fluorescence of PerCP having an emission wavelength of 680 nm at an excitation wavelength of 490 nm by using a fluorescence microscope.

MDA-MB231 = assay: Reactivity of GAH antibody with tissue sections of mammary cancer cell line tumors grown subcutaneously in nude mice; assay type: binding; conditions: MDA-MB231 tumor from nude mouse; three lines tested (MDA-MB231, MDA-435, MDA-MB468), positive reaction recognized only from MDA-MB231
Procedure: as §1
The mammary cancer cell lines MDA-MB231, MDA-435 and MDA-MB468 (each, product of Dainippon Pharmaceutical) were cultured and each cell was implanted subcutaneously to a nude mouse (5 week old, male, purchased from Nippon CLEA). […] The reactivity of the GAH antibody with each of these mammary cancer tissue sections was analyzed in a similar manner to that employed for the analysis of the reactivity with the human mammary cancer tissue section.

B1: GAH antibody: human monoclonal antibody screened for reactivity with gastric and colorectal cancer; heavy and light chain variable regions SEQ. ID NOS. 7 and 8 (antibody, listed as Homo sapiens, V domains shown)
VH: QVQLQESGPGLVKPSQTLSLTCTVSGGSISSCGFYWNWIRQHPGKGLEWIGYIYYSGSTYYNPSLKSRVTISLDTSKSQFSLKLSSLTAADTAVYYCARSTRLRGADYWGQGTMVTVSS
VL: DIVMTQSPDSLAVSLGERATINCKSSQSVLYNSNNKKYLAWYQQKPGQPPKLLIYWASTRESGVPDRFSGSGSGTDFTLTISSLQAEDVAVYYCQQYYSTPWTFGQGTKVEIKR
[1]
  cases of mammary cancer tissue in which positive reaction occurred: 5 cases
MDA-MB231
  reactivity of the GAH antibody with mammary cancer tissue section: positive reaction
